In PubChem BioAssay AID1347428 (National Center for Advancing Translational Sciences (NCATS), 2020):
The campaign covered roughly 91,000 compounds. About 290 (0.32%) were called active. The inconclusive results got no clear call from the source; some entries with a clear call stand among them for comparison. Calls come from the whole dose curve; as a rule, active = well fitted inhibition curve with a large enough effect; inconclusive = small, poorly fitted or top-dose-only effect; inactive = no such curve, though single readings can be large or run the other way. Where the call is inconclusive, the potency comes from a doubtful curve fit.

Biological target: Single-stranded DNA cytosine deaminase (Homo sapiens) (UniProt Q9GZX7)
Chain of UniProt Q9GZX7 (Q9GZX7 whole entry, looked up): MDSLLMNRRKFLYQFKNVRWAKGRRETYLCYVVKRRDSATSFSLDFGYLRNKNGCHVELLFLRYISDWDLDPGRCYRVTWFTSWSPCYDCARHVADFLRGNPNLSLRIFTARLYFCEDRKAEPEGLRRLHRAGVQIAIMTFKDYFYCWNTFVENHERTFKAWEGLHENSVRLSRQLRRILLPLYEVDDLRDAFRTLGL
Assay: Primary qHTS assay for inhibitors of Activation Induced Cytidine Deaminase (AID): AID signal; note: nearly all actives have a fitted effect of over 25% in size
Settings: AID deamination FRET fluorescence, UDG-coupled, 4 h; activity change, negative = inhibition: at 115 µM (top of the series)
% is set by controls: 0 for no effect and ±100 for the full control effect; potency is the fitted concentration of half-maximal effect; tags give direction and shape of the fitted curve.

SMILES | activity change, negative = inhibition | Potency
CCC(CC)C(=O)Nc1c(C(=O)N2CCN(c3ccccc3)CC2)oc2ccccc12 | inactive: -20.5% | –
CCCN(CCC)CC(O)Cn1cc(/C=C/C(=O)c2ccc(OC)cc2)c2ccccc21 (stereo not drawn) | – | inconclusive: 28.2 µM [inhibitor, full curve]
Cc1coc2cc3oc(=O)c(CC(=O)N4CCCCC4)c(C)c3cc12 | inactive: 7.53% | –
COc1ccc(Cl)cc1NC(=O)Cc1coc2c(C)c(C)ccc12 | – | inconclusive: 25.1 µM [inhibitor, partial curve, poor fit]
CC(C)COc1ccc(C(=O)Nc2cccc3ncccc23)cc1 | inactive: -1.85% | –
COc1ccc(OC)c(/C=N/OCc2c(Cl)cccc2Cl)c1 | inactive: -11.7% | –
Cc1[nH][nH]c(=O)c1C(c1ccc(OCc2ccccc2)cc1)c1c(C)[nH][nH]c1=O | – | inconclusive: 79.4 µM [inhibitor, partial curve, poor fit]
COc1ccc(-c2cc(-c3ccccc3)c(C#N)c(SCC(O)CS(=O)(=O)Cc3ccccc3)n2)cc1 (stereo not drawn) | – | inconclusive: 20 µM [inhibitor, full curve, poor fit]
Cc1ccc(C(C)C)c(OCC(=O)NCC2(N3CCOCC3)CCCCC2)c1 | – | inconclusive: 44.7 µM [inhibitor, partial curve, poor fit]
CC(C)n1cc2c(c1-c1ccccc1Cl)c(=O)n(C)c(=O)n2C | – | inconclusive: 56.2 µM [inhibitor, partial curve, poor fit]
O=C(NCC(c1cccnc1)N1CCc2ccccc21)c1ccc(F)c(F)c1 (stereo not drawn) | – | inconclusive: 56.2 µM [inhibitor, partial curve, poor fit]
O=C(CSc1nc(-c2ccc(F)cc2)nc2c1Cc1ccccc1O2)Nc1cccc(C(=O)O)c1 | – | active: 39.8 µM
Oc1ccc(N=Cc2cccc3ccccc23)cc1 | – | inconclusive: 39.8 µM [inhibitor, full curve, poor fit]
CC1=C(C(=O)Nc2cc(C)ccc2C)C(c2cccc3ccccc23)NC(=S)N1 (stereo not drawn) | inactive: 0.949% | –
CC(C)(C)c1[nH]c2c(F)cc(F)cc2c1C=O | inactive: 3.97% | –
COc1ccc(-c2nc(SCC(=O)c3ccc(Br)cc3)n[nH]2)cc1 | inactive: -12.6% | –
CCN1C(=O)c2ccccc2S(=O)c2ccc(C(=O)NCc3ccc(C)cc3)cc21 (stereo not drawn) | – | inconclusive: 25.1 µM [inhibitor, partial curve]
CC(=O)Nc1ccc(CNC(=O)c2nccnc2N)cc1 | inactive: 3.13% | –
CCOc1cc(/C=C/c2nc3ccc(OC)cc3s2)ccc1O | inactive: 5.45% | –
Cc1ccc2c(c1)c(=O)c(C(=O)c1ccccc1)cn2Cc1ccccc1F | – | inconclusive: 50.1 µM [inhibitor, partial curve, poor fit]
COc1cc2c(cc1OC)C(c1ccc(Cl)cc1)N(c1ccc(C)c(F)c1)C(=O)C2 (stereo not drawn) | – | inconclusive: 70.8 µM [inhibitor, partial curve, poor fit]
CCOC(=O)c1ccc(CSc2nnc3cc(C)c4ccccc4n23)cc1 | – | inconclusive: 50.1 µM [inhibitor, partial curve, poor fit]

SMILES | activity change, negative = inhibition | Potency
COc1ccccc1NC(=O)CN(c1ccc(C(C)C)cc1)S(=O)(=O)c1c(C)noc1C | – | inconclusive: 17.8 µM [inhibitor, full curve, poor fit]
Cc1cccc(NC(=O)CSc2nc3ccc(NC(=O)c4cccs4)cc3s2)c1 | inactive: 4.15% | –
COc1ccc2oc(C(=O)NC3CCC(C)CC3)c(C)c2c1 (stereo not drawn) | inactive: -8.6% | –
COc1ccc(C2c3c(n(C)c4ccccc34)C(=O)N2CC(=O)Nc2ccc(Cl)cc2)cc1 (stereo not drawn) | – | inconclusive: 39.8 µM [inhibitor, partial curve, poor fit]
CCOc1ccc(-c2n[nH]c3c2C(c2ccccc2OC)N(c2ccc(Br)cc2)C3=O)cc1 (stereo not drawn) | – | inconclusive: 70.8 µM [inhibitor, partial curve, poor fit]
COc1ccc2c(c1)NC(c1ccc(OCC(C)C)cc1)=NC(c1ccncc1)=N2 | – | inconclusive: 50.1 µM [inhibitor, partial curve, poor fit]
CCOc1ccc2nc(N3CCCC(C(=O)Nc4ccc(Br)c(C)c4)C3)sc2c1 (stereo not drawn) | – | inconclusive: 79.4 µM [inhibitor, partial curve, poor fit]
CCCCNC(=O)CCCn1c(=O)c2ccccc2n(Cc2ccccc2C)c1=O | – | inconclusive: 20 µM [inhibitor, single point]
Cc1ccc(C)c(OCC(O)Cn2nc(C)c3ccccc3c2=O)c1 (stereo not drawn) | inactive: -3.3% | –
CCCCN(CC)CCCNC(=O)c1cc2c(-c3ccc(OC)c(OC)c3)nn(C)c2s1 | – | inconclusive: 50.1 µM [inhibitor, partial curve, poor fit]
CCCN(CCC)CCNC(=O)c1cc2c(-c3ccccc3F)nn(C)c2s1 | – | inconclusive: 56.2 µM [inhibitor, partial curve, poor fit]
Cc1cc(C)n(-c2nc3ccccc3nc2N2CCN(C(=O)c3ccccc3)CC2)n1 | inactive: -10.1% | –
N.N.N.N.N.N.N.N.N.N.N.N.N.N.O.O.[Ru+4].[Ru+5].[Ru+5] | – | active: 22.4 µM
Cc1ccc(CSc2nc(=O)c3c(n2C)NC(=O)CC3c2ccc(OC(C)C)cc2)cc1 (stereo not drawn) | – | inconclusive: 15.8 µM [inhibitor, full curve, poor fit]
Cc1[nH]n(-c2ccc(F)cc2)c(=O)c1CCC(=O)Nc1ccc(C#N)cc1 | inactive: 0.543% | –
N#CCCN(CCC#N)C(=O)C1CCN(C(=O)c2cccs2)CC1 | inactive: 4.92% | –
COc1ccc(S(=O)(=O)Cc2ccc(C(=O)N3CCN(c4cc(C)ccc4C)CC3)o2)cc1 | – | inconclusive: 25.1 µM [inhibitor, full curve]
CCSc1ncc(Cl)c(C(=O)N(Cc2ccc(C(C)(C)C)cc2)C2CCS(=O)(=O)C2)n1 (stereo not drawn) | – | inconclusive: 25.1 µM [inhibitor, partial curve, poor fit]
O=C(Nc1nonc1-c1ccc2c(c1)CCCC2)c1ccco1 | inactive: -9.06% | –
CCOc1cc(C)c(C(C)C)cc1S(=O)(=O)n1ccnc1CC | – | inconclusive: 50.1 µM [inhibitor, partial curve, poor fit]
CCOc1ccc(-n2nnnc2CNS(C)(=O)=O)cc1 | inactive: -5.59% | –
